According to the supplement of paper PMC11417369:
± gives the standard deviation of the averaged measurements. The list shows a part of the results.

What follows are sequences tested on PfAP2-G AP2 domain (GST-tagged) (assay: gcPBM binding intensity (ln(normalized median fluorescence intensity)); higher = stronger DNA binding).
In short: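 GST-fused DNA-binding domains of P. falciparum, expressed in E. coli, were applied at about 25 μg on average for 1 h to an Agilent 4 × 180k array of primer-extended double-stranded 36-bp intergenic genomic probes and negative controls. Binding intensity is the highest Masliner-normalised natural-log median intensity across replicate spots of either probe orientation, measured with Alexa488 anti-GST antibody and a 488 nm scan.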

In order of falling “gcPBM binding intensity (ln)” value:
1. ATATGGCACATATGTACACACGTATAGATAATATTA [CACACA_site5162]  11.5 ± 0.93
2. TTTTAATATTTTAAGAGTACAGAAATATATAATATG [XGTACX_site4955]  11.4 ± 0.99
3. TTGTTATCTACCTGTAGTACATATATTATGTAATAT [XGTACX_site735]  11.4 ± 0.88
4. GAATATATATTCATATGTACACAATTTATGTATTAT [XGTACX_site4719]  11.4 ± 0.79
5. ATAATTCTTTTACTGTGTACATATTATCACTTATTT [XGTACX_site2456]  11.4 ± 0.76
6. ATAATAATATTTCTATGTACTTATTTTATGTATTAG [XGTACX_site1747]  11.4 ± 0.96
7. TATATATTTTTTTCATGTACTTATTATATATATATA [XGTACX_site5321]  11.4 ± 0.83
8. ATTTTATAACATTCATGTACACATTTCATTTATTTG [XGTACX_site3028]  11.3 ± 0.77
9. AATATTATATGGACGTGTCCACATAAACCTATATAT [XGTACX_site2053]  11.3 ± 0.75
10. ATTTATTTATTTATATGTACTTAAATGAAAGGAATA [XGTACX_site6024]  11.3 ± 1
11. ATTAAATATGTCAAGTGTACAAAATGTAAAAAAAAA [XGTACX_site4119]  11.1 ± 0.57
12. GGAAATATAAAATCATGTACATATGTATATATAATT [XGTACX_site5491]  11.1 ± 0.61
13. ATATGCGTTTGCAAATGTACATATTATTTATATATA [XGTACX_site7128]  11 ± 0.63
14. TGTAATTGTTTAAAGGGTACATATATCAGATGTCTT [XGTACX_site5877]  11 ± 0.59
15. GCCATTGTACCATCCACACACATATAAATATGTATA [CACACA_site7303]  10.9 ± 0.56
16. GAATATAAACCTATTACACACATCTATATGTACATT [CACACA_site1914]  10.9 ± 0.5
17. ATGAATATATATATTTGTACATATGTATATATATAT [XGTACX_site7527]  10.9 ± 0.54
18. ACATACATTTTTAAATGTACATATATATATATATAT [XGTACX_site6751]  10.9 ± 0.48
19. AGAGACACTTTTTATTGTACAAGAGGAGGTTACCTT [XGTACX_site8768]  10.8 ± 0.46
20. TATGAAGAAAAGAATTGTACGATGTTTATTTTGTAT [XGTACX_site8614]  10.8 ± 0.49
21. ATATAATGGACCATAGTGCATAAAAATAACAAAAAA [GTGCAC_site9558]  10.6 ± 0.4
22. TGTTAATAGAAATACGTGCACACTAAAGGGAAAACA [CACACA_site1485]  10.6 ± 0.43
23. TTATCTCTACAAAGTGCACACACGTAAAAACATATA [CACACA_site3957]  10.5 ± 0.4
24. TTTTTTGGTTTTCATGCACACAATTTATAAATCTAT [CACACA_site3106]  10.4 ± 0.18
25. TAAATATATATATACACACACACCAAAGCAATAGAT [CACACA_site2940]  10.3 ± 0.16
26. ACAGTATCAATATGGATAAAAATGTCCATATGCCTG [TGCATGCA_negctrl_site482]  10.3 ± 0.28
27. TATTTATAAATGAACACACACGCAATTTGAATCGAA [CACACA_site3371]  10.3 ± 0.18
28. AAGGTAAACAGACACACACACATACAAAAAAAAAAA [CACACA_site3768]  10.3 ± 0.52
29. CATTATGTTGTAAATACACACATACAGATACATACA [CACACA_site4565]  10.3 ± 0.16
30. GTAGGGGAAAAAAAAACACACAAAAAACAACAGATC [CACACA_site1187]  10.3 ± 0.26
31. TTTTGTTTTTGTAGAGTGCATAAAGAAGATATGTAT  10.3 ± 0.31
32. CATATAAATATATATACACACACACCGTAATACATA [CACACA_site9158]  10.2 ± 0.078
33. TTATATATACCTAAGACACACACATATATATATATA [CACACA_site8153]  10.2 ± 0.33
34. ATTTTTTTTATTATTACACACATATAACAAAAAAAT [CACACA_site6934]  10.2 ± 0.26
35. CTATATCATTTTCTAGCACACACATTGTTATTACCT [CACACA_site8204]  10.2 ± 0.014
36. AGTATAGATGTATACACACACCAAACGTTAAAAAAA [CACACA_site7443]  10.2 ± 0.14
37. AATACCATAATCAATGCACACATAACAAAATATTAT [CACACA_site8873]  10.08 ± 0.071
38. TTTTTATATTTTATAGTGCAAAAACTTACATAAAAT  10.1 ± 0.28
39. TAAAGGCAAACAAACACACACACATAAATACAGATA [CACACA_site5204]  10.08 ± 0.099
40. TATAAATACTTAGAAACACACAAAAATATTTTATAA [CACACA_site7259]  10.06 ± 0.071
41. TTAGTAAATACATTTGCACACATTATTTTTTAACAT [CACACA_site5448]  10.11 ± 0.078
42. TTTTTTATGCTAACTTCTTTTTCCTTATAAAATTGG [TGCATGCA_negctrl_site598]  10.02 ± 0.071
43. ATATATATATATAATACACACATCATAAAATATGTA [CACACA_site2518]  10 ± 0.33
44. ATATATATATTATATGCACACTTATATTTCATTAGA [CACACA_site5439]  9.98 ± 0.16
45. TGGAAACAATGACACACACACAAAAAAAAAAAAAAA [CACACA_site7494]  9.98 ± 0.45
46. TATTTTTTTTCTTTATTTATAACGCTCAATATATTC [GTGCAC_negctrl_site265]  9.97 ± 0.042
47. AACACATACAGATATGCACACATTTTATTCCATTAT [CACACA_site5565]  9.95 ± 0.22
48. CCGATATAATGGAAAACACACAAAAGATATATATAT [CACACA_site2683]  9.95 ± 0.28
49. TAAATATTAACAATCGCACACATATTATTTTTCCAA [CACACA_site1626]  9.93 ± 0.042
50. TATATAACATATAACACACATACTTAGTATTACATA [CACACA_site3099]  9.84 ± 0.057
51. TTTTTATATTTCAACATATCACAATTTTATATATCT [CACACA_negctrl_site178]  9.72 ± 0.21
52. TACGAAAAAAAAAAAAAAAAAAAAAAACACAAAAAA [CACACA_negctrl_site1643]  9.7 ± 0.21
53. TTTCAAAATTTTTATTTTAAATAAACATTTATAAAA [CACACA_negctrl_site1588]  9.575 ± 0.035
54. AAAAAGAAAAAATATATTCGTCTATTATAAACAATA [CACACA_negctrl_site648]  9.48 ± 0.25
55. TGGAAATATATATATATATATACATATATATATAGC [XGTACX_negctrl_site107]  9.455 ± 0.007
56. AAAAATTAAAATATAACTAATTAATTTGTATTCATT [CACACA_negctrl_site1633]  9.44 ± 0.23
